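Grown in 96-well plates, cells were treated for 48 hours with each compound at five concentrations. Insufficient inhibition: endpoint recorded as highest concentration tested. TGI marks complete inhibition of growth.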 A number of entries come with more than one value. The list is limited to them. An entry can have further records. A record mostly stands for its own series of concentrations, not given here; some values may only mark the edge of a range.
Columns and labels:
Experiment in all cases: inhibition of tumour cell growth, NCI panel, 48 h
[1] = test system: SF-268 CNS
[2] = test system: HT29 colon
[3] = test system: MOLT-4 leukemia
[4] = test system: SNB-75 CNS
[5] = test system: SK-MEL-5 melanoma
[6] = test system: NCI-H522 lung
[7] = test system: RPMI-8226 leukemia
[8] = test system: HOP-62 NSCLC
[9] = test system: UACC-62 melanoma
[10] = test system: NCI-H460 lung
[11] = test system: BT-549 breast
[12] = test system: 786-0 renal
[13] = test system: SF-295 CNS
[14] = test system: COLO 205 colon
[15] = test system: A498 renal
[16] = test system: T-47D breast
[17] = test system: SN12C renal
[18] = test system: A549 NSCLC
[19] = test system: SK-MEL-28 melanoma
[20] = test system: UACC-257 melanoma
[21] = test system: IGROV1 ovarian
[22] = test system: HCT-116 colon
[23] = test system: NCI/ADR-RES ovarian
[24] = test system: U251 CNS
[25] = test system: PC-3 prostate
[26] = test system: MDA-N
[27] = test system: OVCAR-5 ovarian
[28] = test system: LOX IMVI melanoma
[29] = test system: DU-145 prostate
[30] = test system: CAKI-1 renal
[31] = test system: TK-10 renal
[32] = test system: SR leukemia
[33] = test system: ACHN renal
[34] = test system: EKVX NSCLC
[35] = test system: KM12 colon
[36] = test system: SNB-19 CNS
[37] = test system: NCI-H23 lung
[38] = test system: HOP-92 NSCLC
[39] = test system: NCI-H226 lung
[40] = test system: RXF 393 renal
[41] = test system: UO-31 renal
[42] = test system: SK-OV-3 ovarian
[43] = test system: CCRF-CEM leukemia
[44] = test system: HCT-15 colon
[45] = test system: MCF7 breast
[46] = test system: OVCAR-3 ovarian
[47] = test system: MALME-3M melanoma
[48] = test system: SW-620 colon

In the case of `CO[C@H]1C[C@@H]2CC[C@@H](C)[C@@](O)(O2)C(=O)C(=O)N2CCCC[C@H]2C(=O)O[C@H]([C@H](C)C[C@@H]2CC[C@@H](O)[C@H](OC)C2)CC(=O)[C@H](C)C=C(C)[C@@H](O)[C@@H](OC)C(=O)[C@H](C)C[C@H](C)/C=C/C=C/C=C1C`, the TGI [1] is reported as 29.1 µM, 277 µM, 376 µM, the TGI [2] is reported as 17.8 µM and 374 µM and the TGI [3] is reported as 11.3 µM and > 703 µM. For the same compound, the TGI [4] was 31.5 µM [1 test] and 127 µM [mean of 4 tests] and 2.79 µM [mean of 8 tests], the TGI [5] was > 1 mM [1 test] and 15.1 µM [mean of 10 tests] and 247 µM [mean of 3 tests] and the TGI [6] was 86.5 nM, 23.3 µM, 146 µM, 385 µM. For the same compound, the TGI [7] was 33.2 µM [1 test] and 265 µM [mean of 3 tests] and 87.3 nM [mean of 7 tests] and 16.9 µM [mean of 8 tests], the TGI [8] was 94.3 nM, 20.4 µM, 278 µM and the TGI [9] was 29.7 µM [1 test] and 224 µM [mean of 4 tests] and 17.9 µM [mean of 8 tests]. For the same compound, the TGI [10] was 66.8 µM [1 test] and 354 µM [mean of 4 tests] and 24.1 µM [mean of 9 tests], the TGI [11] was 16 µM and 202 µM and the TGI [12] was 24.2 µM and > 512 µM. The TGI [13] was 258 µM [mean of 4 tests] and 60.2 nM [mean of 8 tests] and 12.2 µM [mean of 9 tests], the TGI [14] was 21.9 µM, 65.9 µM, 412 µM and the TGI [15] was 0.0512 nM, 21.5 µM [1 test] and 136 µM [mean of 2 tests] and 34.3 nM [mean of 7 tests] and 15.9 µM [mean of 8 tests]. The TGI [16] was 0.282 nM [1 test] and 28.9 µM [mean of 10 tests] and 193 µM [mean of 2 tests], the TGI [17] was 30.5 µM [1 test] and 338 µM [mean of 4 tests] and 26.7 µM [mean of 8 tests] and the TGI [18] was 108 µM [1 test] and 24 µM [mean of 10 tests] and 344 µM [mean of 4 tests]. The TGI [19] was 20.6 µM, 26.1 µM, 252 µM, the TGI [20] was 474 µM [mean of 3 tests] and 23.1 µM [mean of 8 tests] and the TGI [21] was 51.3 nM, 15.3 µM, 27.7 µM, 257 µM. The TGI [22] was 18.7 µM, 32.8 µM, 234 µM, the TGI [23] was 28.2 µM, 117 µM, 376 µM and the TGI [24] was 314 µM [mean of 4 tests] and 16.1 µM [mean of 8 tests]. The TGI [25] was 17.9 µM and 304 µM, the TGI [26] was 21.9 µM and 252 µM and the TGI [27] was 43.1 µM [1 test] and 368 µM [mean of 4 tests] and 24.2 µM [mean of 7 tests]. For the same compound, the TGI [28] was 16.5 µM, 26.1 µM, 358 µM, the TGI [29] was > 376 µM [mean of 2 tests] and 19.8 µM [mean of 8 tests] and the TGI [30] was 17.2 µM [mean of 10 tests] and 252 µM [mean of 4 tests] and 55 nM [mean of 8 tests]. The TGI [31] was 53.8 nM, 21.9 µM, > 658 µM, the TGI [32] was 10.4 µM and > 1 mM and the TGI [33] was 455 µM [mean of 3 tests] and 8.78 µM [mean of 9 tests]. For the same compound, the TGI [34] was 16.9 µM, 48.7 µM, 473 µM, the TGI [35] was 23 µM, 29.6 µM, 330 µM and the TGI [36] was 95.7 µM [1 test] and 25.2 µM [mean of 10 tests] and 290 µM [mean of 4 tests]. For the same compound, the TGI [37] was 23.5 µM, 236 µM, 335 µM, the TGI [38] was 21 µM [1 test] and 39.2 nM [mean of 5 tests] and 14.1 µM [mean of 7 tests] and the TGI [39] was 947 nM [1 test] and 365 µM [mean of 3 tests] and 22 µM [mean of 5 tests]. The TGI [40] was 25.8 µM [1 test] and 159 µM [mean of 4 tests] and 36.5 nM, 15.9 µM [mean of 7 tests], the TGI [41] was 68 nM, 14.9 µM, 32.5 µM, 225 µM and the TGI [42] was 132 µM [1 test] and 335 µM [mean of 3 tests] and 23 µM [mean of 7 tests]. For the same compound, the TGI [43] was 40.4 nM, 23.6 µM, 177 µM, the TGI [44] was 17.9 µM, 53.3 µM, 267 µM and the TGI [45] was 28.6 µM [1 test] and 375 µM [mean of 3 tests] and 17 µM [mean of 7 tests] and 52.1 nM [mean of 8 tests]. The TGI [46] was > 560 µM [mean of 2 tests] and 16.1 µM [mean of 9 tests], the TGI [47] was 49 nM, 8.39 µM, 17.9 µM, 170 µM and the TGI [48] was 741 µM [1 test] and > 1 mM [mean of 2 tests] and 28.2 µM [mean of 9 tests].

Source: PubChem BioAssay (NCI)
